In PubChem BioAssay AID493208 (National Center for Advancing Translational Sciences (NCATS), 2011):
The whole screen tested about 44,000 compounds, of which about 340 (0.77%) were called active. Not shown: some 5% with an inconclusive outcome. The call rests on the fitted dose curve; in most records, active means well fitted inhibition curve with a large enough effect; inconclusive means small, poorly fitted or top-dose-only effect; inactive means flat fitted curve, though single readings scatter. Some of the results follow.

assay: Acumen qHTS Assay for Inhibitors of the mTORC1 Signaling Pathway in MEF (Tsc2-/-, p53-/-) Cells: Sytravon; settings: phospho-rpS6 immunofluorescence/PI, 24 h; series mostly up to 38.3 µM; activity change, negative = inhibition: at the top concentration;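 further: plate controls were DMSO for no effect and rapamycin for full effect; nearly all actives have a fitted effect of over 50% in size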
Outline: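 Tsc2-/-, p53-/- MEFs (empty-vector stable line) in DMEM + 10% FBS were treated with compounds 24 h at 37 degree Celsius, fixed, and immunostained for phospho-rpS6 (Alexa-488) with propidium iodide counterstain. Laser-scanning cytometry gave % positive cells, normalized against 7.5 nM rapamycin and DMSO.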

Activity change, negative = inhibition, inactive:
CCCCN(CC)CCNC(=O)c1cn(C)c(=O)c2c1c1ccccc1n2C 1.9%
Cc1ccc(OCc2ccc(-c3nc(C#N)c(NCc4cccnc4)o3)o2)cc1 -1.26%
CCc1cccc(-n2nnc(-c3nsc(NC(=O)c4cccs4)n3)c2C)c1 1.29%
COc1ccc(CC2C(=O)Nc3ccc(Br)cc32)cc1OC (configuration not stated) -12.6%
COc1ccc(NC(=O)CCc2c(C)nc3nc(CNC(=O)OC(C)(C)C)nn3c2C)cc1OC -2.65%
COc1ccc(S(=O)(=O)NCC(c2ccco2)N2CCN(c3ccc(F)cc3)CC2)cc1C (configuration not stated) -5.31%
CCc1ccccc1NC(=O)N1CCN(C(=O)c2nsc3ccccc23)CC1 2.64%
CCc1ccc(NC(=O)CC2C(=O)N(c3cccc(C)c3)C(=O)N2Cc2ccco2)cc1 (configuration not stated) -0.32%
CC1CCN(S(=O)(=O)c2ccc3c(ccn3CCC(=O)NCc3ccc(N(C)C)cc3)c2)CC1 -12.8%
CCNc1nc(NC(C)(C)C)nc(Oc2ccc(=O)n(C)n2)n1 3.12%
O=C(NCCc1ccccc1)C(=O)NCC(c1ccc2c(c1)OCO2)N1CCOCC1 (configuration not stated) 2.33%
CCS(=O)(=O)N1CCc2cc(C(=O)NCCc3ccc(OC)cc3)ccc21 0%
CC1CCN(S(=O)(=O)c2nnc(NC(=O)c3cccc(Br)c3)s2)CC1 -1.9%
COc1cc(NC(=O)CC(C)n2nc(C)cc2C)cc(OC)c1 (configuration not stated) -5.5%
CCOc1ccccc1C(=O)N(Cc1ccccc1F)C1CCS(=O)(=O)C1 (configuration not stated) 4.45%
Cc1ccc(-c2nnc3ccccc3c2C(=O)Nc2ccccc2F)cc1 7.21%
COc1cc(NC(=O)C(CCSC)NS(=O)(=O)c2ccc3c(c2)oc(=O)n3C)cc(OC)c1 (configuration not stated) 0.56%
COc1ccc(Cl)cc1NC(=O)CSc1cn(CC(=O)N2CCCCCC2)c2ccccc12 -9.8%
Cc1ccc(-n2c(=O)c3c(c4cc(C)ccc4n3C)n(CC(=O)NCc3ccccc3)c2=O)cc1 5.18%
COc1ccccc1NC(=O)CSc1nc(-c2ccccc2F)nc2cc(=O)[nH]n12 -0.541%
COc1ccc(NC(=O)c2c(NCc3cccc(OC)c3)sc3c2CCCC3)cc1 -10.6%
CC(C)(C)c1ccc(C(=O)N2CCC(c3nc4ccccc4o3)CC2)cc1 -12%
O=C(CCC1N=C2c3ccccc3N=C(SCc3ccccc3F)N2C1=O)NCc1ccc(F)cc1 (configuration not stated) 0.101%
Cc1ccc2occ(CC(=O)N(Cc3ccc(C(C)C)cc3)C3CCS(=O)(=O)C3)c2c1 (configuration not stated) -26.2%
CC1=C(c2ccc(Cl)cc2)S(=O)(=O)N=C1N1CCC(C(=O)NCc2ccccc2F)CC1 -28.3%
COc1ccc(CCNc2nc3c(-c4cccc(C)c4)nnn3c3ccccc23)cc1OC -21%
COc1ccc(S(=O)(=O)N(CC(=O)Nc2cccnc2)c2ccc(Cl)cc2)cc1 -3.72%
COc1ccc(CNC(=O)Cn2c(=O)cc(-c3ccccc3)c3c(C)nn(C)c32)cc1 -21.1%
COc1ccc(NC(=O)Cn2c(=O)ccc3cc(S(=O)(=O)N4CCCC4)ccc32)cc1Cl -0.758%
Clc1cccc(-n2ncc3c(NCCCn4ccnc4)ncnc32)c1 11.8%
CCc1ccc2oc(C(=O)Nc3ccccc3C(=O)OC)cc(=O)c2c1 5.71%
Cc1ccccc1NC(=O)c1c(C)oc2ccc(O)c(CN3CCN(C)CC3)c12 -3%
O=C(Nc1ccc(Cl)c(C(F)(F)F)c1)C1CCN(S(=O)(=O)c2cccc3nonc23)CC1 -6.83%
Cc1cccn2c(=O)c(C(=O)NCCc3ccc(S(N)(=O)=O)cc3)c(O)nc12 0.154%
Cc1ccccc1CSc1cn(CC(=O)N2CCCCCC2)c2ccccc12 -6.94%
CCCCn1c(NCc2ccc(N(C)C)cc2)nc2ccccc21 -14.4%
O=C(O)Cn1ccc2cc(S(=O)(=O)N3CCCCCC3)ccc21 1.7%
COc1ccc(CNC(=O)COCc2cc(-c3cccs3)on2)cc1 -6.92%
Cc1ccccc1CSc1nc2ccsc2c(=O)n1CCC(C)C -2.81%
Cc1ccc2cc(CN(C(=O)c3cccc(Cl)c3)c3ccccc3)c(=O)[nH]c2c1 -6.91%
CCCSCCCNC(=O)c1ccc2c(c1)sc1nc(-c3ccc(OCC)cc3)cn12 7.33%
COc1ccccc1NC(=O)c1oc2ccccc2c1NC(=O)C1CCCCC1 0.987%
CC1C(=O)N2CCCc3cc(S(=O)(=O)N4CCC(C(N)=O)CC4)cc1c32 (configuration not stated) -13%
COc1cccc(CNC(=O)c2cnc(N3CCCCC3)c3ccccc23)c1 -5.69%
O=C(NCc1ccccc1F)C1CCN(c2nn3cc(-c4ccc(F)cc4)nc3s2)CC1 -5.24%
CN1c2ccc(Cl)cc2-c2nc(SCC(=O)NCc3ccccc3)ncc2S1(=O)=O -4.95%
O=C(Nc1ccccc1C(F)(F)F)N1CCC(CN2CCc3ccccc3C2)CC1 0.721%
COc1ccc(C)cc1NC(=O)C(Cc1ccccc1)NS(=O)(=O)c1cccs1 (configuration not stated) -0.0739%
O=C(NC1CC(=O)N(c2cccc(F)c2)C1)c1cc2ccccc2o1 (configuration not stated) -15.3%
CCOC(=O)c1ccc(CN(Cc2ccccc2C)S(=O)(=O)c2ccc(F)c(C)c2)cc1 8.64%
COCCNc1oc(/C=C/c2ccc(F)cc2)nc1C#N -0.393%
COc1ccc(Nc2ncnc3c2cnn3-c2ccc(C)cc2)cc1Cl -15.7%
CCC(=O)N1CCc2cc(Br)cc(S(=O)(=O)CCC(=O)NCc3cccc(OC)c3)c21 -0.455%
Cc1ccc(-n2c(=O)c3c(cnn3C)n(CC(=O)Nc3ccccc3C)c2=O)cc1 -1.31%
Cc1ccc(CNC(=O)CCCn2c(=O)[nH]c3ccc(Br)cc3c2=O)cc1 -17.7%
Cc1cccc(Cn2cc(S(=O)(=O)c3cccc(C)c3)c(=O)c3cc(F)c(N4CCOCC4)cc32)c1 -3.38%
CCCCn1c(=NC(=O)c2cc3ccccc3o2)c(C(=O)OCC)cc2c(=O)n3ccccc3nc21 -8.24%
O=C(Cn1c(=O)oc2cc(S(=O)(=O)N3CCCCC3)ccc21)NCc1ccc(Cl)cc1 -8.78%
O=C(Oc1ccc(Cl)cc1)c1cc(-c2ccc3c(c2)OCCO3)on1 -5.25%
CCN(CC)CCNC(=O)Cn1nc(C)c2c(C)n(-c3ccccc3)nc2c1=O -3.33%
COc1ccc(Cn2ccnc2SCC(=O)NCc2ccco2)cc1 -0.818%
Cc1cccc(N2CCN(S(=O)(=O)c3ccc4c(c3)CC(=O)N4C)CC2)c1C -14.8%
COC(=O)c1ccccc1NC(=O)c1ccc2nc(CCc3ccccc3)oc2c1 1.42%
COc1cccc(-c2noc(COc3ccccc3Cl)n2)c1 0.73%
Cc1ccc(Cl)cc1NC(=O)CSc1nc2ccccc2nc1Cc1ccccc1 5%
COc1ccccc1N1CCN(CC(O)COc2cc(C)cc(C)c2)CC1 (configuration not stated) -0.828%
CCOc1ccc(N2C(=O)N(Cc3ccc(C)cc3C)c3ccccc3S2(=O)=O)cc1 0.0426%
COc1cccc(CNC(=O)CCCN2C(=O)CSc3c2c(C)nn3-c2ccccc2)c1 0%
COc1ccc(-c2ccc3c(N)c(C(=O)Nc4cc(F)ccc4C)sc3n2)cc1 -18%
Cc1cccc(Nc2c3c(nc4nncn24)CCC3)c1 -0.683%
CCn1cc(C(=O)N2CCN(c3cc(C)ccc3C)CC2)c(=O)c2cc(S(=O)(=O)N(C)C3CCCCC3)ccc21 -2.68%
Cc1ccc(-c2cc(C(=O)NCCc3ccccc3)c3c(-c4ccc(C)cc4)[nH]nc3n2)cc1 -2.84%
CCCCN1CCc2nc(N3CCN(c4ncccn4)CC3)ncc2C1 -5.08%
Cc1ccc(NC(=O)CSc2nc3c([nH]c4ccccc43)c(=O)n2-c2ccccc2)c(C)c1 -1.97%
CCN(c1ccccc1)S(=O)(=O)c1ccc(NC(=O)c2cc(=O)c3cc(C)c(C)cc3o2)cc1 1.96%
Cc1cccc(NS(=O)(=O)c2ccc3c(c2)CCN3C(=O)CCC(=O)O)c1C -3.59%
COc1cccc(-n2cc(C(=O)NCc3cccc(Cl)c3)c3ccccc3c2=O)c1 -4.68%
COc1ccc(S(=O)(=O)Nc2cc3c(cc2NCc2ccccc2)n(C)c(=O)n3C)cc1OC -14.2%
CCOc1ccc(C(=O)Nc2ccc3nc(SCc4ccccc4)sc3c2)cc1 -13%
CCOc1ccc(NC(=O)c2ccc(-c3ccccc3)s2)cc1 -0.0634%
Cc1nc2c(-c3ccc(F)cc3)c(C)nn2c(C)c1CCC(=O)NCc1ccc(Cl)cc1 0.295%
COc1ccccc1N1CCN(C(=O)Cn2c(=O)nc(-c3ccccc3)c3cc(Cl)ccc32)CC1 1.1%
Cc1ccc2c(=O)cc(CSc3nnc(-c4ccccc4)n3C)[nH]c2c1C -0.414%
Cc1cc(C)c(NC(=O)c2cc3c(=O)n4ccccc4nc3n2C)c(C)c1 0.4%
Cc1cc(-c2nc3ncccc3o2)ccc1NC(=O)c1ccc(Br)cc1 0.911%
CCOC(=O)Cn1c(=O)n(C2CCCCC2)c2nc(-c3ccc(Cl)cc3)nc(C(N)=O)c21 1.33%
Cc1c(Cl)cccc1NC(=O)c1ccc(C(=O)Nc2cccc(Cl)c2C)cc1 -3.48%
CC1CCN(C(=O)c2cnn(-c3cccc(Cl)c3)c2C2CCN(C(=O)OC(C)(C)C)CC2)CC1 5.51%
CC(=O)N1CCc2c(sc3c2c(=O)n(-c2ccccc2C)c(=O)n3Cc2cccc(F)c2)C1 -3.98%
COc1cc(OC)cc(-n2nnc(-c3nc(-c4ccccc4Cl)no3)c2N)c1 -7.99%
CSc1ccc(CNC(=O)c2ccccc2NC(=O)c2nsc3ccccc23)cc1 -9.05%
CC(=O)N1c2ccccc2C(=O)C1N1CCN(c2ccccc2)CC1 (configuration not stated) 0%
COc1ccc(NC(=O)c2c(-c3ccccc3)c(-c3ccccc3)nn(C)c2=O)c(OC)c1 0.775%
COc1ccc(OCC(=O)NCC(c2ccc(Cl)cc2)N2CCCCC2)cc1 (configuration not stated) -15.9%
COc1ccc(CN2COc3ccc4c(oc(=O)c5ccccc54)c3C2)cc1OC 2.42%
Cc1ccccc1Nc1c(-c2ccc(N3CCOCC3)cc2)nc2ncccn12 4.28%
O=C(Nc1ccccc1-c1nc2ccccc2s1)c1cc(Cl)cc(Cl)c1 -1.65%
